Out of some 310,000 compounds screened, about 14,000 (4.5%) showed an effect of 50% or more. Effects have a minus sign here. This is one part of the list.
biological target: human ether-à-go-go-related gene (hERG) potassium channel (human, UniProt Q12809); assay: primary screen, population patch clamp on CHO cells stably expressing hERG
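Note: peak tail current of the secondary pulse compared with the same well before compound.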

Sequence of human ether-à-go-go-related gene (hERG) potassium channel (Q12809 whole entry, looked up): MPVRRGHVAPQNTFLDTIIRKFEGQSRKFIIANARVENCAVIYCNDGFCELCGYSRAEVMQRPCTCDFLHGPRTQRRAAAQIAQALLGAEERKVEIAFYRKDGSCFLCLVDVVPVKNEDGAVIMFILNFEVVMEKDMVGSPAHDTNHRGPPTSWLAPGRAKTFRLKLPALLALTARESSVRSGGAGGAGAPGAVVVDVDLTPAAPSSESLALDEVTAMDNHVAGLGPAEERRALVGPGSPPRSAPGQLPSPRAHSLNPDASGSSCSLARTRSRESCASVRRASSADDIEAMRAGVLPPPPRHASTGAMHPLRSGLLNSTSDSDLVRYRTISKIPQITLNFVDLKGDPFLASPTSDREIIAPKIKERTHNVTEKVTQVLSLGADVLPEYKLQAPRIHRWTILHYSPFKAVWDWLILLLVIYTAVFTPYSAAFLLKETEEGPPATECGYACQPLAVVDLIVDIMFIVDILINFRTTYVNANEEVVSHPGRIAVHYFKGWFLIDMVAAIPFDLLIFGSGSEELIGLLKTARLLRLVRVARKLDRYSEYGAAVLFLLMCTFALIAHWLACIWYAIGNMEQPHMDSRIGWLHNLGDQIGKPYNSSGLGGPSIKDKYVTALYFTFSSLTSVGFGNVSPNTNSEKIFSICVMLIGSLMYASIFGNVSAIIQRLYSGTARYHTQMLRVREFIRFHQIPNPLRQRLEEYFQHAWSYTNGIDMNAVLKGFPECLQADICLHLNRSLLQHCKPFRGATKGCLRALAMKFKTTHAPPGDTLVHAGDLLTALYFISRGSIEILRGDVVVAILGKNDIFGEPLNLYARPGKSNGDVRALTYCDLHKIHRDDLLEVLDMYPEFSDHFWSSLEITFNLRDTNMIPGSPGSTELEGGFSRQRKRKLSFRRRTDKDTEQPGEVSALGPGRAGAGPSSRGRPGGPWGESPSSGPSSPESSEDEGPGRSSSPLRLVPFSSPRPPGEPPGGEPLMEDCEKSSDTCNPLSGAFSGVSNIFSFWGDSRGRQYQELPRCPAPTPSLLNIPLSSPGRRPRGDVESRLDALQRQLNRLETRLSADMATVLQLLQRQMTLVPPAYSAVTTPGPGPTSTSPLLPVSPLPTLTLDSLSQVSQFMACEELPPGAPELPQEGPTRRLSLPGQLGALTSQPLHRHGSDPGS

SMILES	hERG current change (%, negative = inhibition) at 10uM [%]
COc1ccc(C(=O)NCCNc2nc3cc(C)c(C)cc3cc2C)cc1	7.22
CCCCn1c(O)c(C(C)=NCC2CCCO2)c(=O)[nH]c1=O (stereo not shown)	-6.11
COc1ccc(S(=O)(=O)CCC(=O)NCCc2ccc(C)cc2)cc1	-0.726
O=C(Nc1ccc(Br)cc1)C1CCCC1	9.31
Cc1cc(NC(=O)CCC(=O)N(c2ccccc2)C(C(=O)NC(C)(C)C)c2ccccc2Cl)no1 (stereo not shown)	-5.48
CC1CCN(C(=O)c2ccc(S(=O)(=O)Cc3cc(F)ccc3F)c([N+](=O)[O-])c2)CC1	-23.5
CC1CC(C)CN(CC(C)(C)NS(=O)(=O)c2ccc(Cl)cc2)C1 (stereo not shown)	-18.7
CCCc1c(C)c2c(C)[nH]nc2oc1=O	-1.89
OCCN1CCN(c2ncnc3scc(-c4ccc(F)cc4)c23)CC1	-22.1
CC(Oc1cc2oc(=O)c3c(c2cc1Cl)CCCC3)C(=O)NCc1ccccn1 (stereo not shown)	-26.8
c1cc(C(c2nnnn2C2CCCCC2)N2CCN3CCCC3C2)ccn1 (stereo not shown)	-1.98
O=C(N/N=C/c1cccc(OC(=O)c2cccc(Br)c2)c1)c1cccnc1	0.405
Cc1ccc(N(C(C)C(=O)O)S(=O)(=O)c2c(C)n[nH]c2C)cc1 (stereo not shown)	25.6
COc1ccc(C(=O)C[n+]2ccc(-c3nnc4n3CCC4)cc2)cc1.[Br-]	22.1
Cc1ccc(OCC(=O)Nc2ccc(S(=O)(=O)N3CCOCC3)cc2)c(Br)c1	6.42
CCCOc1ccccc1C(=O)N(Cc1ccc(C)o1)C1CCS(=O)(=O)C1 (stereo not shown)	-17
COCCN(C(=O)COC(=O)CSc1ccc(Cl)cc1)c1c(N)n(Cc2ccccc2)c(=O)[nH]c1=O	9.76
COc1ccc(NC(=O)c2c(F)c(F)c(F)c(F)c2F)cc1Cl	3.45
CN(Cc1cccnc1)C(=O)CNC(=O)c1ccc(Cl)cc1Cl	-17.2
CN1CCC(=O)N([C@H](CSc2ccc(Br)cc2)c2ccccc2)CC1	-83.7

SMILES	hERG current change (%, negative = inhibition) at 10uM [%]
C#CCN(CC=C)C(=O)CCc1nnc(COc2ccccc2)o1	6.9
CN1CCN(P(=O)(c2ccccc2)c2nc3ccccc3s2)CC1 (stereo not shown)	-14.5
CC(=O)Oc1cc2oc(=O)cc(C)c2cc1Cl	12.2
Cc1nn(Cc2noc(C(=O)NCC3CCCO3)n2)c(C)c1Br (stereo not shown)	11.5
O=C(OCc1nnc(-c2ccccc2)o1)c1ccc([N+](=O)[O-])s1	-16.1
Cc1ccc(OCC(=O)N2CCN(Cc3ccc4c(c3)OCO4)CC2)cc1.O=C(O)C(=O)O	-15.7
CCOc1ccc(Cn2nnc(C(=O)NCCc3ccc(Cl)cc3)c2N)cc1	17.4
CC1Oc2ccccc2N(CC(=O)NC2CC2)C1=O (stereo not shown)	2.95
CCc1nc2n[nH]c(N)c2c2c1CSC(C)(C)C2	-9.06
COC(=O)c1ccc(S(=O)(=O)N2CCCN(Cc3ccccc3)CC2)n1C	-8.28
Nc1nnc(/C=C/c2cccc([N+](=O)[O-])c2)s1	9.07
CN(C)NC(=S)NC(=O)C12CC3CC(CC(C3)C1)C2	13.2
COc1cccc(NC(=O)c2cc(-c3ccc(OC)cc3OC)nc3ccccc23)c1	11.4
CC(=O)c1ccc(C(=O)N2CCC(n3nccc3NC(=O)C3CC3)CC2)cc1	-35.8
NS(=O)(=O)c1ccc(NC(=O)C2CCCO2)cc1 (stereo not shown)	12.8
CC(=O)N1CCC[C@H]1C(=O)O	6.95
CCc1ccccc1NC(=O)CN1CCN(C(=O)CNC(=O)Cc2cccc3ccccc23)CC1	-59.6
COc1ccc(N2CCN(CCC(O)c3ccc4ccccc4c3)CC2)cc1 (stereo not shown)	-68.3
O=C(NCCN1CCOCC1)C1CCN(c2nc3ccccc3o2)CC1	-18.7
C=CCOn1c(-n2nc(C)cc2C)nc2ccccc2c1=O	12.8

SMILES	hERG current change (%, negative = inhibition) at 10uM [%]
O=C(Cn1nnc(-c2ccncc2)n1)NCCc1ccccc1	3.47
COc1ccc(OC)c(S(=O)(=O)N/N=C\c2ccc3c(c2)OCO3)c1	12.9
CCN1CCN(c2oc(-c3ccco3)nc2C#N)CC1	-24.1
CC(=O)Nc1ccc(C2=NN(CC#N)C(=O)SC2)cc1	11.9
O=C(NCCc1ccc(Cl)cc1)c1cccc(NC2=NC3CS(=O)(=O)CC3S2)c1 (stereo not shown)	12.2
CN(C)/C=C(\C=O)c1ncc(C(F)(F)F)cc1Cl	12.9
CC(C)n1cnc2cc(NCc3ccco3)ccc21.Cl	-9.63
CCOC(=O)C(Sc1cc(-c2ccccc2)nc2ncnn12)C(C)=O (stereo not shown)	16
Cc1ccc2c(COC(=O)CNC(=O)c3ccccc3)cc(=O)oc2c1	-27.6
C=CCn1cc(F)c(=O)n(CC=C)c1=O	4.34
COCCNC(=O)CN(C(=O)CCC(=O)Nc1cc(C)on1)c1cccc(C)c1C	10.6
CC1=CC(C)(C)Nc2ccccc21	15.3
CC(OC(=O)c1cccc(-n2cnnn2)c1)C(=O)Nc1cccc(Cl)c1 (stereo not shown)	-2.88
COc1ccc(C(=O)CC2(CC(=O)c3ccc(OC)cc3)C(=O)N(C)C(=O)N(C)C2=O)cc1	4.16
O=C(/C=C/c1ccccc1)NCCc1c[nH]c2ccccc12	-11.3
O=c1oc2cc(Cl)ccc2n1CSc1nc2ccccc2s1	10.8
O=C(CN(C(=O)C1CSC(=O)C1)c1cccc(F)c1)NCc1ccc2c(c1)OCO2 (stereo not shown)	-14.7
CC(C)CCNC(=O)C(c1ccco1)N(Cc1ccccc1)C(=O)c1snc(C(N)=O)c1N (stereo not shown)	-20

Source: article PMC4336329 (PLoS ONE, 2015)
